Data reported in the supplement of paper PMC8183993.
Counter-ions that a name gives are not always drawn. ± gives the standard deviation of the averaged measurements. Whole data set: some 3,200 compounds, median “nuclei count (viability) relative to DMSO” near 99, cut for the lowest 2% near 16. The list shows a part of the results.

What follows are molecules tested on U2OS (assay: nuclei count (viability) relative to DMSO (% of DMSO); higher = more viable cells). Settings: 10 µM; 24 h.
Method: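 Primary image-based screen in U2OS cells: compounds at 10 uM for 24 h, then a 1 h o-propargyl-puromycin (OPP) pulse, click labelling, and high-throughput microscopy. Mean cytoplasmic OPP intensity and nuclei count were normalised to DMSO wells within each plate (DMSO = 100) and averaged over triplicate plates.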

Compound	nuclei count
CC(C)c1cnn2c(NCc3ccccc3)cc(NCCCCCCN)nc12	89.2
CCc1nn(CCCN2CCN(c3cccc(Cl)c3)CC2)c(=O)n1CCOc1ccccc1 [Nefazodone HCl]	104
CCc1nn(CCCN2CCN(c3cccc(Cl)c3)CC2)c(=O)n1CCOc1ccccc1 [Nefazodone hydrochloride]	114
CC(NCCc1ccc(O)cc1)C(O)c1ccc(O)cc1 (configuration not stated) [Ritodrine hydrochloride]	108
C[N+](C)(CCOc1ccccc1)Cc1ccccc1.O=C([O-])c1cc2ccccc2cc1O [Bephenium hydroxynaphthoate]	99.3
C[C@H](Nc1ncnc2nc[nH]c12)c1cc2cccc(Cl)c2c(=O)n1-c1ccccc1 [Duvelisib (IPI-145, INK1197)]	94.6
C[C@H](Nc1ncnc2nc[nH]c12)c1cc2cccc(Cl)c2c(=O)n1-c1ccccc1	98
CC(C)(O)CC(=O)NCCn1ccc2ncnc(Nc3ccc(Oc4cccc(C(F)(F)F)c4)c(Cl)c3)c21	98.3 ± 7.3
NC1CCN(c2c(F)cc3c(=O)c(C(=O)O)cn(C4CC4)c3c2Cl)C1 (configuration not stated) [Clinafloxacin]	109
CCC1(C)CC(=O)NC1=O (configuration not stated) [Ethosuximide]	109
CCCNC(C)(C)COC(=O)c1ccccc1 [Meprylcaine hydrochloride]	111
CCCc1nn(C)c2c(=O)[nH]c(-c3cc(S(=O)(=O)N4CCN(C)CC4)ccc3OCC)nc12 [Sildenafil]	108
CN(C[C@@H]1COCCO1)S(=O)(=O)Nc1ccc2ccc3ncc(-c4cnn(C)c4)cc3c(=O)c2c1	84.71 ± 0.55
COc1cc(CNC(=O)CCCCCCC(C)C)ccc1O [Dihydrocapsaicin]	106
N#CC[C@H](C1CCCC1)n1cc(-c2ncnc3[nH]ccc23)cn1	93.5 ± 11
CCOC(=O)CC(=O)N1CCSC1COc1ccccc1OC (configuration not stated) [Moguisteine]	97.1
CC(=O)Oc1ccc(C(c2ccc(OC(C)=O)cc2)c2ccccn2)cc1 [Bisacodyl]	91.8
Cc1ccc(C(=O)c2cc(/C=C/C(=O)NO)n(C)c2)cc1	92.7
CCCCS(=N)(=O)CCC(N)C(=O)O (configuration not stated) [Buthionine sulfoximine]	105
CCC(C)(C)C(=O)O[C@H]1C[C@@H](C)C=C2C=C[C@H](C)[C@H](CC[C@@H]3C[C@@H](O)CC(=O)O3)[C@H]21 [Simvastatin (Zocor)]	98.1
CCC(C)(C)C(=O)O[C@H]1C[C@@H](C)C=C2C=C[C@H](C)[C@H](CC[C@@H]3C[C@@H](O)CC(=O)O3)[C@H]21 [Simvastatin]	98.43 ± 0.11
CCNC1(C(N)=O)CCN(c2ncnc3c2nc(-c2ccccc2Cl)n3-c2ccc(Cl)cc2)CC1	98
